Consider 4 molecules from US20240141059A1 (Bristol-Myers Squibb, published 2024).

One assay addresses T1, hCD64 (human, UniProt P12314 16-288, limits assumed).
T1 construct: Purified FcgR analyte in solution; also called hFcgRI; FcgRI
Put plainly: SPR, FcgR analyte titration on protein A-captured dAb-Fc. The protocol:
(§1) A second SPR assay for testing the interaction between antibodies or dAb-Fc proteins with FcgR proteins is a protein A capture method. […] For these studies, protein A is immobilized on flow cells 1-4 of a CM5 sensor chip using standard ethyl (dimethylaminopropyl) carbodiimide (EDC)/N-hydroxysuccinimide (NHS) chemistry, with ethanolamine blocking, in a running buffer of 10 mM HEPES pH 7.4, 150 mM NaCl, 3 mM EDTA, 0.05% surfactant p20, to a density of ˜3000 RU.
A general note: In SPR one partner is held on a chip, and binding of the other changes the refractive index at the surface.

For another assay, the target named is T2, hCD32a-R131 (human, UniProt P12318 34-217).
T2 construct: Purified FcgR analyte in solution; also called FcgRIIa-R131
T2 sequence (looked up): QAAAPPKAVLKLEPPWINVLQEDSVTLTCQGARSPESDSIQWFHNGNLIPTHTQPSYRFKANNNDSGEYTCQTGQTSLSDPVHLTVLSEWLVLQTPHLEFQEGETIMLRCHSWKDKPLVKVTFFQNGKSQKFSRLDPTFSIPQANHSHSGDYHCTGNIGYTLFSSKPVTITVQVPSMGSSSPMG
The assay is described as above. Here is the method:
as §1

A further assay concerns the target T3, hCD40-Fc (human, UniProt P25942 fragment).
T3 construct: Immobilized on the sensor chip; not shown: Fc part of hCD40-Fc not described
Put plainly: SPR, hCD40-Fc immobilized, dAb-Fc analyte, avidity.

For assay [1], the target named is T4, purified human-CD40 monomer (human, UniProt P25942 fragment, limits assumed).
T4 construct: Soluble analyte; also called hCD40monomer
Put plainly: SPR, dAb-Fc on protein A, hCD40monomer analyte; second set.

The target in assay [2] is T4, purified human-CD40 monomer. The experiment in a line: SPR, dAb-Fc on protein A, hCD40monomer analyte; material from UCOE-CHO cells.
T4 sequence (P25942 21-193 limits assumed): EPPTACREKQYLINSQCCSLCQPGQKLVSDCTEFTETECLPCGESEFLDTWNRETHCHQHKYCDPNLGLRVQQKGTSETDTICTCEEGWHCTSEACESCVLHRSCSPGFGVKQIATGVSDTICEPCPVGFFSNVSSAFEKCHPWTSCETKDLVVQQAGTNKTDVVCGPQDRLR
For assay [3] the target is unchanged. The experiment in a line: SPR, dAb-Fc on protein A, hCD40monomer analyte; material from UCOE-CHO cells; second set.

The term Kd denotes the constant that tells how readily two partners part at equilibrium. As a reminder, the koff is the rate constant with which the complex falls apart. A higher koff goes with fast dissociation. For orientation: kon means the rate constant with which the complex forms.

Chain of hCD40-Fc (P25942 21-193): as the sequence (P25942 21-193 limits assumed) above
Chain of hCD64 (P12314 16-288 limits assumed): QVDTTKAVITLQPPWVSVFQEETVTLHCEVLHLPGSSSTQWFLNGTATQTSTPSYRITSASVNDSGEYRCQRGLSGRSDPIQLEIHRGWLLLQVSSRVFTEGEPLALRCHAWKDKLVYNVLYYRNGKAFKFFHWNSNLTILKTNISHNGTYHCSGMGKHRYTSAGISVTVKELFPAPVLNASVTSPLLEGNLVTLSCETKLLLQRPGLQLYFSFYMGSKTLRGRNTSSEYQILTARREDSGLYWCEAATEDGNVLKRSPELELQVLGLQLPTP

B1: 3h56-269-IgG4.1 (Fc fusion)
chain: EVQLLESGGGLVQPGGSLRLSCAASGFTFRDYEMWWVRQAPGKGLERVSAINPQGTRTYYADSVKGRFTISRDNSKNTLYLQMNSLRAEDTAVYYCAKLPFRFSDRGQGTLVTVSSAST[left out - human IgG4 Fc with S228P (EU numbers)]
notes: also called BMS-986090
For B1, the Kd was determined as 2.8 nM in the assay with hCD64 and 2200 nM with hCD32a-R131.

B2: 3h56-269-IgG4.1 (Fc fusion)
chain: EVQLLESGGGLVQPGGSLRLSCAASGFTFRDYEMWWVRQAPGKGLERVSAINPQGTRTYYADSVKGRFTISRDNSKNTLYLQMNSLRAEDTAVYYCAKLPFRFSDRGQGTLVTVSSAST[left out - human IgG4 Fc with S228P (EU numbers)]
notes: dAb-Fc fusion protein; also called BMS-986090
On to B2, for which the KDapparent in the assay with hCD40-Fc was less than 1 nM.

B3: 3h56-269-CT (Fc fusion)
chain: EVQLLESGGGLVQPGGSLRLSCAASGFTFRDYEMWWVRQAPGKGLERVSAINPQGTRTYYADSVKGRFTISRDNSKNTLYLQMNSLRAEDTAVYYCAKLPFRFSDRGQGTLVTVSSAST[left out - human IgG1 Fc with changes]
notes: dAb-Fc fusion protein
On to B3, for which the KDapparent with hCD40-Fc was less than 1 nM. In addition, in assay [1], binding was characterised by a dissociation constant (Kd) of 7.3 nM and the koff is 0.00012 s⁻¹. In addition, in assay [2], the dissociation constant (Kd) was 7.7 nM, the koff amounted to 0.00013 s⁻¹ and the association rate constant (kon) came to 16000 M⁻¹ s⁻¹. Moreover, in assay [3], binding was put at a Kd of 7 nM, the koff was found to be 0.00014 s⁻¹ and the kon was determined as 19000 M⁻¹ s⁻¹.

B4: 3h56-269-IgG1-D265A (Fc fusion)
chain: EVQLLESGGGLVQPGGSLRLSCAASGFTFRDYEMWWVRQAPGKGLERVSAINPQGTRTYYADSVKGRFTISRDNSKNTLYLQMNSLRAEDTAVYYCAKLPFRFSDRGQGTLVTVSSAST[left out - human IgG1 Fc with D265A (EU numbers)]
notes: dAb-Fc fusion protein
On to B4, for which the KDapparent with hCD40-Fc is less than 1 nM.
